Data on ten variants can be found in the supplement of paper PMC12217912.

B1: TEV protease; numbered along this chain (parent)
chain: MGESLFKGPRDYNPISSSICHLTNESDGHTTSLYGIGFGPFIITNKHLFRRNNGTLVVQSLHGVFKVKDTTTLQQHLVDGRDMIIIRMPKDFPPFPQKLKFREPQREERICLVTTNFQTKSMSSMVSDTSCTFPSGDGIFWKHWIQTKDGQCGSPLVSTRDGFIVGIHSASNFTNTNNYFTSVPKNFMELLTNQEAQQWVSGWRLNADSVLWGGHKVFMVKPEEPFQPVKEATQL

The variants in the assay derive from B1. Briefly: raw area under fraction-flipped curve 0-4 h after induction (AUC4h, not background-subtracted), DNA-recorder readout of cleavage of the substrate (dimensionless); higher = more cleavage of the substrate by the protease variant. The note with it: temperature: 34 °C; time window: 0-4 h after rhamnose induction. As to the method:
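In vivo DNA recorder in E. coli TOP10(DE3) ΔrhaA at 34 °C. Each TEVp single-site mutant (parent TEVp 0) is paired with a single-site variant of the 7-mer TEVs (canonical ENLYFQ|S). The substrate sits between flexible linkers in a Bxb1-sfGFP-TEVs-SsrA fusion, so cleavage stabilises Bxb1 and speeds flipping of a recombination array, read by NGS. The value is the raw area under the fraction-flipped curve over 0-4 h after rhamnose induction (AUC4h), with ≥20 reads per time point. It is not background-subtracted; inactive controls average about 0.047.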

The other results are listed elsewhere or left out. Sequences were assembled here from the parent chain. Values near 0.05 are background.
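Further: Bxb1 expression induced with 0.2% (w/v) L-rhamnose at OD600 near 0.5, cultures sampled hourly, flipped fraction per protease–substrate barcode pair counted by paired-end Illumina sequencing.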

Turning to MGESLFKGPRDYNPISSSICHLTNESDGHTTSLYGIGFGPFIITNKHLFRRNNGTLVVQSLHGVFKVKDTTTLQQHLVDGRDMIIIRMPKDFPPFPQKLKFREPQREERICLVTTNFQTKSMSSMVSDTSCTFPSGDGIFWKHWIQTKDGQCGSPLVSTRDWFIVGIHSASNFTNTNNYFTSVPKNFMELLTNQEAQQWVSGWRLNADSVLWGGHKVFMVKPEEPFQPVKEATQL [G162W], the “area with substrate ENLYFAS” value was determined as 0.0732, the “area with substrate ENLYFDS” value amounted to 0.0467, the “area with substrate ENLYFES” value stood at 0.0337 and the “area with substrate ENLYFFS” value was determined as 0.0564. The “area with substrate ENLYFIS” value is 0.0532, the “area with substrate ENLYFMS” value is 0.0794, the “area with substrate ENLYFPS” value worked out at 0.0607 and the “area with substrate ENLYFTS” value turned out to be 0.0414. Also, the “area with substrate ENLYFVS” value worked out at 0.0519 and the “area with substrate ENLYFYS” value amounted to 0.0601.

For the variant MGESLFKGPRDYNPISSSICHLTNESDGHTTSLYGIGFGPFIITNKHLFRRNNGTLVVQSLHGVFKVKDTTTLQQHLVDGRDMIIIRMPKDFPPFPQKLKFREPQREERICLVTTNFQTKSMSSMVSDTSCTFPSGDGIFWKHWIQTKDGQCGSPLVSTRIGFIVGIHSASNFTNTNNYFTSVPKNFMELLTNQEAQQWVSGWRLNADSVLWGGHKVFMVKPEEPFQPVKEATQL [D161I], the “area with substrate ENLYFAS” value was determined as 0.0427, the “area with substrate ENLYFDS” value was determined as 0.056, the “area with substrate ENLYFFS” value is 0.0627 and the “area with substrate ENLYFGS” value was 0.0309. The “area with substrate ENLYFIS” value was 0.0543, the “area with substrate ENLYFLS” value turned out to be 0.0666, the “area with substrate ENLYFMS” value is 0.0501 and the “area with substrate ENLYFNS” value stood at 0.0446. Also, the “area with substrate ENLYFPS” value was determined as 0.0562, the “area with substrate ENLYFRS” value came out at 0.0557, the “area with substrate ENLYFSS” value was determined as 0.0392 and the “area with substrate ENLYFYS” value was 0.0824.

Take MGESLFKGPRDYNPISSSICHLTNESDGHTTSLYGIGFGPFIITNKHLFRRNNGTLVVQSLHGVFKVKDTTTLQQHLVDGRDMIIIRMPKDFPPFPQKLKFREPQREERICLVTTNFQTKSMSSMVSDTSCTFPSGDGIFWKHWIQTKDGQCGSPLVSTRDGFIVGCHSASNFTNTNNYFTSVPKNFMELLTNQEAQQWVSGWRLNADSVLWGGHKVFMVKPEEPFQPVKEATQL [I167C]: the “area with substrate ENLYFAS” value worked out at 0.0393, the “area with substrate ENLYFFS” value was determined as 0.0588, the “area with substrate ENLYFHS” value was determined as 0.0593 and the “area with substrate ENLYFIS” value was found to be 0.0545. The “area with substrate ENLYFKS” value was 0.0581, the “area with substrate ENLYFLS” value was 0.0619, the “area with substrate ENLYFMS” value was 0.0768 and the “area with substrate ENLYFNS” value came to 0.0622. Besides, the “area with substrate ENLYFPS” value was found to be 0.0625, the “area with substrate ENLYFRS” value stood at 0.0542, the “area with substrate ENLYFTS” value was determined as 0.0494 and the “area with substrate ENLYFVS” value was determined as 0.0538. Also, the “area with substrate ENLYFWS” value amounted to 0.0558 and the “area with substrate ENLYFYS” value is 0.0656.

For MGESLFKGPRDYNPISSSICHLTNESDGHTTSLYGIGFGPFIITNKHLFRRNNGTLVVQSLHGVFKVKDTTTLQQHLVDGRDMIIIRMPKDFPPFPQKLKFREPQREERICLVTTNFQTKSMSSMVSDTSCTFPSGDGIFWKHWIQTKDGDCGSPLVSTRDGFIVGIHSASNFTNTNNYFTSVPKNFMELLTNQEAQQWVSGWRLNADSVLWGGHKVFMVKPEEPFQPVKEATQL [Q151D], the “area with substrate ENLYFAS” value was 0.0587, the “area with substrate ENLYFDS” value was determined as 0.0556, the “area with substrate ENLYFES” value was determined as 0.0542 and the “area with substrate ENLYFFS” value worked out at 0.0598. Further, the “area with substrate ENLYFGS” value was determined as 0.0417, the “area with substrate ENLYFIS” value is 0.0525, the “area with substrate ENLYFMS” value was 0.0648 and the “area with substrate ENLYFRS” value came out at 0.0625. In addition, the “area with substrate ENLYFTS” value amounted to 0.0549 and the “area with substrate ENLYFVS” value came out at 0.0088.

Consider MGESLFKGPRDYNPISSSICHLTNESDGHTTSLYGIGFGPFIITNKHLFRRNNGTLVVQSLHGVFKVKDTTTLQQHLVDGRDMIIIRMPKDFPPFPQKLKFREPQREERICLVTTNFQTKSMSSMVSDTSCTFPSGDGIFWKHWIQTKDGQCGSPLVSTRDGFIVGIHSASGFTNTNNYFTSVPKNFMELLTNQEAQQWVSGWRLNADSVLWGGHKVFMVKPEEPFQPVKEATQL [N172G], for which the “area with substrate ENLYFAS” value worked out at 0.0482, the “area with substrate ENLYFES” value is 0.0462, the “area with substrate ENLYFIS” value came out at 0.0667 and the “area with substrate ENLYFKS” value worked out at 0.0658. Further, the “area with substrate ENLYFMS” value came to 0.054, the “area with substrate ENLYFRS” value was determined as 0.0641, the “area with substrate ENLYFSS” value was found to be 0.0607 and the “area with substrate ENLYFTS” value was determined as 0.0531. The “area with substrate ENLYFVS” value is 0.0568.

For MGESLFKGPRDYNPISSSICHLTNESDGHTTSLYGIGFGPFIITNKHLFRRNNGTLVVQSLHGVFKVKDTTTLQQHLVDGRDMIIIRMPKDFPPFPQKLKFREPQREERICLVTTNFQTKSMSSMVSDTSCTFPSGDGIFWKHWIQTKDGQCGSPLVSTRDGFIVGIHSASTFTNTNNYFTSVPKNFMELLTNQEAQQWVSGWRLNADSVLWGGHKVFMVKPEEPFQPVKEATQL [N172T], the “area with substrate ENLYFAS” value came to 0.0593, the “area with substrate ENLYFDS” value amounted to 0.0488, the “area with substrate ENLYFES” value was 0.0597 and the “area with substrate ENLYFKS” value is 0.0547. Moreover, the “area with substrate ENLYFMS” value came out at 0.0512, the “area with substrate ENLYFNS” value came to 0.0591 and the “area with substrate ENLYFRS” value came to 0.0467.

On to MGESLFKGPRDYNPISSSICHLTNESDGHTTSLYGIGFGPFIITNKHLFRRNNGTLVVQSLHGVFKVKDTTTLQQHLVDGRDMIIIRMPKDFPPFPQKLKFREPQREERICLVTTNFQTKSMSSMVSDTSCTFPSGDGIFWKHWIQTKDGQCGSPLVSTRDGFIVGIHSASIFTNTNNYFTSVPKNFMELLTNQEAQQWVSGWRLNADSVLWGGHKVFMVKPEEPFQPVKEATQL [N172I], for which the “area with substrate ENLYFAS” value came out at 0.0484, the “area with substrate ENLYFES” value turned out to be 0.0582, the “area with substrate ENLYFFS” value was determined as 0.0703 and the “area with substrate ENLYFGS” value was determined as 0.0587. The “area with substrate ENLYFHS” value is 0.0554, the “area with substrate ENLYFIS” value is 0.0585, the “area with substrate ENLYFLS” value was 0.0659 and the “area with substrate ENLYFMS” value is 0.0472. In addition, the “area with substrate ENLYFPS” value was 0.0609, the “area with substrate ENLYFRS” value is 0.0556, the “area with substrate ENLYFTS” value is 0.0613 and the “area with substrate ENLYFWS” value is 0.0592.

In the case of MGESLFKGPRDYNPISSSICHLTNESDGHTTSLYGIGFGPFIITNKHLFRRNNGTLVVQSLHGVFKVKDTTTLQQHLVDGRDMIIIRMPKDFPPFPQKLKFREPQREERICLVTTNFQTKSMSSMVSDTSCTFPSGDGIFWKHWIQTKDGQCGSPLVSTRDGFIVGIHSASNYTNTNNYFTSVPKNFMELLTNQEAQQWVSGWRLNADSVLWGGHKVFMVKPEEPFQPVKEATQL [F173Y], the “area with substrate ENLYFAS” value was 0.0543, the “area with substrate ENLYFCS” value was determined as 0.0607, the “area with substrate ENLYFDS” value amounted to 0.088 and the “area with substrate ENLYFES” value was 0.08. The “area with substrate ENLYFFS” value came to 0.0724, the “area with substrate ENLYFGS” value amounted to 0.0619, the “area with substrate ENLYFHS” value amounted to 0.0661 and the “area with substrate ENLYFMS” value amounted to 0.0667. The “area with substrate ENLYFRS” value came out at 0.0586, the “area with substrate ENLYFTS” value was determined as 0.068, the “area with substrate ENLYFVS” value worked out at 0.061 and the “area with substrate ENLYFWS” value was found to be 0.054. For the same variant, the “area with substrate ENLYFYS” value came out at 0.0301.

As for MGESLFKGPRDYNPISSSICHLTNESDGHTTSLYGIGFGPFIITNKHLFRRNNGTLVVQSLHGVFKVKDTTTLQQHLVDGRDMIIIRMPKDFPPFPQKLKFREPQREERICLVTTNFQTKSMSSMVSDTSCTFPSGDGIFWKHWIQTKDDQCGSPLVSTRDGFIVGIHSASNFTNTNNYFTSVPKNFMELLTNQEAQQWVSGWRLNADSVLWGGHKVFMVKPEEPFQPVKEATQL [G150D], the “area with substrate ENLYFAS” value is 0.105, the “area with substrate ENLYFES” value was found to be 0.0503, the “area with substrate ENLYFFS” value is 0.0726 and the “area with substrate ENLYFLS” value is 0.0324. For the same variant, the “area with substrate ENLYFMS” value came to 0.0562, the “area with substrate ENLYFNS” value was 0.0554, the “area with substrate ENLYFPS” value was determined as 0.0557 and the “area with substrate ENLYFTS” value is 0.0541. Also, the “area with substrate ENLYFVS” value was 0.0522 and the “area with substrate ENLYFWS” value stood at 0.0913.

Take MGESLFKGPRDYNPISSSICHLTNESDGHTTSLYGIGFGPFIITNKHLFRRNNGTLVVQSLHGVFKVKDTTTLQQHLVDGRDMIIIRMPKDFPPFPQKLKFREPQREERICLVTTNFQTKSMSSMVSDTSCTFPSGDGIFWKHWIQTKDIQCGSPLVSTRDGFIVGIHSASNFTNTNNYFTSVPKNFMELLTNQEAQQWVSGWRLNADSVLWGGHKVFMVKPEEPFQPVKEATQL [G150I]: the “area with substrate ENLYFAS” value stood at 0.0643, the “area with substrate ENLYFCS” value is 0.0678, the “area with substrate ENLYFES” value was determined as 0.0576 and the “area with substrate ENLYFFS” value turned out to be 0.0656. Further, the “area with substrate ENLYFGS” value was 0.0497, the “area with substrate ENLYFHS” value amounted to 0.064, the “area with substrate ENLYFIS” value came to 0.0532 and the “area with substrate ENLYFKS” value worked out at 0.0438. In addition, the “area with substrate ENLYFLS” value amounted to 0.0633, the “area with substrate ENLYFMS” value came out at 0.0628, the “area with substrate ENLYFNS” value was 0.0554 and the “area with substrate ENLYFSS” value is 0.063. Also, the “area with substrate ENLYFTS” value turned out to be 0.0568, the “area with substrate ENLYFVS” value turned out to be 0.0627 and the “area with substrate ENLYFWS” value is 0.0542.
